Results: the supplement of paper PMC3334620
Over roughly 33,000 sequences, “E-score (-0.5 to 0.5)” has its median near -0.056; the highest 2% begin near 0.38. The list shows a part of the results.

target: Stb4 (UniProt P50104); assay: PBM E-score (8-mer binding enrichment) (E-score (-0.5 to 0.5)); higher = stronger / more preferred TF binding; most listed sequences are background and not binding sites; settings: protein concentration: 200 nM; construct: GST-DNA-binding domain
Outline: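 For each ungapped eight-base word taken together with its reverse complement, the Universal PBM Analysis Suite assigned an E-score. Binding data came from GST-tagged yeast transcription factors, applied at about 100-200 nM, on universal all-10-mer Agilent arrays made double-stranded by primer extension. Fluorescent anti-GST marked bound protein, and scans were normalised with masliner.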

Point of comparison: ATATACTC, “PBM E-score” value -0.0565. Against it:
- GGTGAATA — higher, 0.0433
- AAACAGAC — lower, -0.139
- CCGTCGCC — higher, 0.08
- ATCTGATC — higher, 0.00741
- CGCTTAAG — lower, -0.148
- TAACCGAA — higher, 0.431
- AAATCCGA — higher, 0.396
- CGTGGTAG — lower, -0.121
- GTGACCTA — lower, -0.113
- CGCTGATC — higher, 0.3
- CCCCATAC — higher, -0.00014
- CCTTGTAC — lower, -0.076
- AGTTTTGG — lower, -0.144
- AGCTCAGG — lower, -0.293
- CATCCAGG — lower, -0.178
- GGAACCAC — higher, 0.243
- AAGCCGGC — higher, 0.273
- AGCGTATA — higher, 0.00919
- CACTATAA — lower, -0.38
- AGCAATTG — lower, -0.228
- ACGCAGCT — lower, -0.208
- GCGGTCTA — lower, -0.238
- CCAAGGTC — lower, -0.179
- CTCAACTC — higher, 0.0905
- AGAAACTC — higher, 0.0723
- CCGGTCAC — higher, 0.108
- CCAACGGA — higher, 0.201
- GCTACTCA — lower, -0.211
- ATACAGGA — higher, 0.0661
- AACGATCT — higher, 0.00017
- ACCATCGG — higher, 0.237
- AGCGCACT — lower, -0.213
- ACCGCGTA — higher, 0.0889
- AGGACAGC — lower, -0.211
- GACACCCC — higher, -0.041
- CACTAACC — higher, 0.0836
- ACAAGTGA — higher, 0.0183
- CGAAGTGA — higher, 0.0225
- ATGAGCAA — lower, -0.0718
- AAGACGAT — lower, -0.308
- GCGTACTA — lower, -0.197
- AGCGCGCC — higher, 0.04
- AGGGACCA — lower, -0.256
- ACTGTTAG — lower, -0.274
- AGTCTACC — lower, -0.0892
- GCTCCGCC — higher, 0.0632
- ACGTTCGG — higher, 0.358
- GCACGAGC — lower, -0.111
- GCATAGAC — lower, -0.162
- AGAAACAT — lower, -0.0859
- ATCCGAGG — higher, 0.481
- AGGTTGCA — lower, -0.102
- CCAGGAGG — lower, -0.205
- CAGGCCAG — lower, -0.105
- CAGACAAG — lower, -0.107
- GATGGTTA — higher, -0.018
- AAATCGAA — higher, -0.0555
- ATTAGAAG — lower, -0.154
- CAACAGAA — lower, -0.176
- AAAGGTAC — higher, 0.0111
- AATCGATG — lower, -0.059
- ATACTGAG — lower, -0.0728
- CATGTCAC — lower, -0.0935
- TCCCCCGA — higher, 0.303
- CCAAAATA — higher, 0.0978
- ATGCGAAG — lower, -0.157
- ATTCAGCA — lower, -0.2
- CTTTTCAA — lower, -0.111
- GGAGCCCC — lower, -0.0597
- CAAAGAGC — lower, -0.0947
- GAAAATAC — higher, 0.154
- CCTTGTGC — lower, -0.237
- CGCCGAGC — higher, 0.39
- CGTAGACA — lower, -0.0783
- TGCCCCAA — lower, -0.144
- GAGGTTAC — higher, -0.00275
- CCGTAAAG — higher, 0.122
- AAATCATG — lower, -0.27
- CTGGTGGA — lower, -0.243
- GGCGCCCA — lower, -0.134
- CTAAATGC — higher, 0.0335
- GGGGGAAA — higher, 0.11
- AAAGGGAA — lower, -0.131
- AACGAATG — lower, -0.142
- CAGTATAC — lower, -0.151
